# Assay results published in the supplement of paper PMC7266297.
# Counter-ions that a name gives are not always drawn. This is one part of the list. Single values are uncertain, as repeats are few or missing.
# Test system: KB-V1
# Experiment: growth inhibition relative to DMSO control (SRB); cervical cancer cells: KB-3-1 is the parent and KB-V1 overexpresses MDR1; SRB is the sulforhodamine B stain; higher = more growth inhibition
# Conditions: 1 µM; 72 h
# 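Further: Read-out is SRB optical density at 490 nm, with the control being wells given 0.5% DMSO vehicle, and compound added one day after cells were plated.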
row,SMILES,growth inhibition [%]
1,CN(C)CC/C=C1/c2ccccc2COc2ccc(CC(=O)O)cc21 [Olopatadine HCl],2.13
2,CCOC(=O)C1=C(N)Oc2ccc(Br)cc2C1C(C#N)C(=O)OCC (stereo unspecified),38
3,CCc1c(O)cc(O)c(C(=O)c2ccc(OCCN3CCOCC3)c(OC)c2)c1CC(=O)N(CCOC)CCOC,< 0
4,Cn1cc(-c2ccc3nnc(Sc4ccc5ncccc5c4)n3n2)cn1,29
5,c1ccc(-c2nn3c(c2-c2ccnc4cc(OCCN5CCOCC5)ccc24)CCC3)nc1,< 0
6,Clc1ccc(Nc2nnc(Cc3ccncc3)c3ccccc23)cc1 [Vatalanib (PTK787) 2HCl],30.2
7,Cc1ccc(S(=O)(=O)OCC(=O)Nc2ccc(C(=O)O)c(O)c2)cc1,35.1
8,Cc1cc(F)c(Nc2ncnc3cc(OCc4ccccc4)ccc23)cc1O,< 0
9,Cc1cc(-c2ncc(CC(=O)Nc3ccc(-c4cnccn4)cn3)cc2C)ccn1,< 0
10,CCOC(=O)Nc1cc(-c2ccc(C)c(NS(C)(=O)=O)c2)nn2c(C)nnc12 [Bromosporine],32.4
11,CC(=O)c1c(C)c2cnc(Nc3ccc(N4CCNCC4)cn3)nc2n(C2CCCC2)c1=O,48.2
12,COc1cccc2c1C(=O)c1c(O)c3c(c(O)c1C2=O)C[C@@](O)(C(=O)CO)C[C@@H]3O[C@H]1C[C@H](N)[C@H](O)[C@H](C)O1 [Doxorubicin (Adriamycin)],59.7
13,CC(=O)O[C@]1(C(C)=O)CC[C@H]2[C@@H]3C=C(C)C4=CC(=O)CC[C@]4(C)[C@H]3CC[C@@]21C [Megestrol Acetate],39.7
14,CO[C@@H](C(=O)N1Cc2[nH]nc(NC(=O)c3ccc(N4CCN(C)CC4)cc3)c2C1)c1ccccc1,50.5
15,NCCCCCNCC12CC3CC(CC(C3)C1)C2 [IEM 1754 dihydrobroMide],70.9
16,CNC(=O)c1ccc(N2C(=S)N(c3cnc(C#N)c(C(F)(F)F)c3)C(=O)C23CCC3)cc1F,5.67
17,CCCC(C)NC(=O)c1ccc(Cl)c(Cl)c1 (stereo unspecified),3.09
18,CCOC(=O)[C@H](CCc1ccccc1)N[C@@H](C)C(=O)N1C(=O)N(C)C[C@H]1C(=O)O [Imidapril HCl],25.2

row,SMILES,growth inhibition [%]
1,CN1CCN(c2ccc3nc(-c4c(N)c5c(F)cccc5[nH]c4=O)[nH]c3c2)CC1 [Dovitinib (TKI-258) Dilactic Acid],63
2,Cn1cc(C2=C(c3cn(CCCSC(=N)N)c4ccccc34)C(=O)NC2=O)c2ccccc21 [Ro 31-8220 Mesylate],8.44
3,CCOC(=O)[C@H](CCc1ccccc1)N[C@H]1CCCN2CCC[C@@H](C(=O)O)N2C1=O [Cilazapril Monohydrate],19.1
4,CC[C@@H]1C(=O)N(C)c2cnc(Nc3ccc(C(=O)N[C@H]4CC[C@H](N5CCN(CC6CC6)CC5)CC4)cc3OC)nc2N1C(C)C [Volasertib (BI 6727)],73.8
5,O=C(Cc1ccc(-c2ccc(OCCN3CCOCC3)cc2)cn1)NCc1ccccc1,96.5
6,CN(C)Cc1cccc(N=C(c2ccccc2)c2c(O)[nH]c3cc(C(=O)N(C)C)ccc23)c1,18.8
7,CN(C)CCOc1ccc(-c2nc(-c3ccncc3)c(-c3ccc4c(c3)CC/C4=N\O)[nH]2)cc1,< 0
8,CS(=O)(=O)c1ccc(C(=O)Nc2ccc(Cl)c(-c3ccccn3)c2)c(Cl)c1 [Vismodegib (GDC-0449)],12.4
9,Cc1cc(Nc2cc(N3CCN(C)CC3)nc(/C=C/c3ccccc3)n2)n[nH]1,75.6
10,Nc1ccc(C(=O)Nc2cccc(-c3nc(N4CCOCC4)c4oc5ncccc5c4n3)c2)cn1,66.9
11,CCOC(=O)[C@H](CCc1ccccc1)N[C@H]1CCc2ccccc2N(CC(=O)O)C1=O [Benazepril HCl],35.1
12,CCN1CCN(c2ccc(Nc3cc(N(C)C(=O)Nc4c(Cl)c(OC)cc(OC)c4Cl)ncn3)cc2)CC1,47.7
13,C=CC(=O)Nc1ccc2ncnc(Nc3cccc(Br)c3)c2c1,29.5
14,CC(C)(C)c1cnc(CSc2cnc(NC(=O)C3CCNCC3)s2)o1,59
15,Cc1[nH]c(=O)c(C#N)cc1-c1ccncc1 [Milrinone],8.51
16,O=C(O)CCCN1CCC(O[C@@H](c2ccc(Cl)cc2)c2ccccn2)CC1 [Bepotastine Besilate],20.4
17,O=C1NC(=O)C(=Cc2ccc(-c3ccc(F)cc3)o2)S1 (stereo in doubt),< 0
18,Cc1cn([C@H]2C=C[C@@H](CO)O2)c(=O)[nH]c1=O [Stavudine (d4T)],34.2
